Test results reported in PubChem BioAssay AID2147 (National Center for Advancing Translational Sciences (NCATS), 2009).
Screen size: about 230,000 compounds; about 3,600 (1.6%) were called active. Inconclusive means that the source gave no clear call. Such entries were picked first, then a sample of the others. Calls follow the shape of the dose curve; as a rule, active = well fitted inhibition curve with a large enough effect (not every such curve was filed as active); inconclusive = small, poorly fitted or top-dose-only effect, or another doubt; inactive = no such curve, though single readings can be large or run the other way. Potencies of inconclusive entries are doubtful fits and often do not repeat.

These compounds were tested against Lysine-specific demethylase 4E (Homo sapiens) (UniProt B2RXH2) (assay: qHTS Assay for Inhibitors of Human Jumonji Domain Containing 2E (JMJD2E)). Settings: JMJD2E catalytic domain, FDH-coupled NADH fluorescence (FDH is formaldehyde dehydrogenase); series mostly up to 57.1 µM.
UniProt B2RXH2, sequence (B2RXH2 whole entry, looked up, the tested form may be a part): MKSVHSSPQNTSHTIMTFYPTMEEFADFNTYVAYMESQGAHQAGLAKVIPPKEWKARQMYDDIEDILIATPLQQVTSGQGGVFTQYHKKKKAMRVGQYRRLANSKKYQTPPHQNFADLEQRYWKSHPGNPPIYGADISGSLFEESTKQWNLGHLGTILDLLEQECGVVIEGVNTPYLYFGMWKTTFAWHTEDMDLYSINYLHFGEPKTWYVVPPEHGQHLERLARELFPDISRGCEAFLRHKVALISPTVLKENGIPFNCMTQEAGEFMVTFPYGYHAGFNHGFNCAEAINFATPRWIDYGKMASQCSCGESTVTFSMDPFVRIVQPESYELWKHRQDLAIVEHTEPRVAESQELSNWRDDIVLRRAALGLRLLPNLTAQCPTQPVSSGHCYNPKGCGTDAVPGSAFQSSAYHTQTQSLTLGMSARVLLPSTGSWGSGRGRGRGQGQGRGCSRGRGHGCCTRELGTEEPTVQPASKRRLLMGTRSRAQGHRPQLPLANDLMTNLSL
Also: nearly all actives have a fitted effect of over 50% in size.
Potency is read from the fitted curve at half-maximal effect; tags tell the direction and shape of the fitted curve.

| SMILES | Potency |
| --- | --- |
| O=C1C(Cl)=C(N2CCCCC2)C(=O)C(Cl)=C1c1cnc(N2CCCCC2)s1 | active: 14.1 µM |
| CCN(CC)c1ccc(/C=C(/C#N)c2nc3ccc(C)cc3[nH]2)c(OC(C)C)c1 | inactive |
| CC(=C/c1ccccc1)/C=N/NC(=O)c1ccc2nc[nH]c2c1 | inactive |
| COc1ccc(C(=O)NC2CCCCCC2)cc1S(=O)(=O)N1CCCc2ccccc21 | inactive |
| CCOC(=O)C1Cc2c([nH]c3ccccc23)C(C)N1 (configuration not stated) | inconclusive: 35.5 µM [inhibitor, single point] |
| N#Cc1cnn2c3c(cnc12)C(=O)N1CCc2ccccc2C1C3 (configuration not stated) | inconclusive: 2.82 µM [inhibitor, partial curve] |
| Cc1oc2ccc(OC(=O)N3CCOCC3)cc2c1C(=O)OC(C)C | inactive |
| Cc1ccc(-c2ccc(=O)n(CC(=O)NCCN3CCCCC3C)n2)cc1 (configuration not stated) | inconclusive: 28.2 µM [inhibitor, single point] |
| C=CCN1C(=O)/C(=C/C=C2/N(CC)c3ccc(S(=O)(=O)N(C)C)cc3N2CC)SC1=S | inactive |
| COc1cc(NC(=O)c2ccc3c(c2)OCO3)ccc1NC(=O)c1ccco1 | inconclusive: 35.5 µM [inhibitor, single point] |
| Cc1c(SCCO)c(=O)[nH]c2cc3c(cc12)OCO3 | inconclusive: 28.2 µM [inhibitor, partial curve] |
| Cc1ccc2oc(C(Cl)(Cl)Cl)cc(=O)c2c1 | inactive |
| Clc1ccc(Nc2nc3ccccc3n3nnnc23)cc1 | inconclusive: 6.31 µM [inhibitor, single point] |
| Cc1nc2cc(-c3cccs3)nn2c(NCC(C)(C)CN(C)C)c1C | inconclusive: 31.6 µM [inhibitor, partial curve] |
| Brc1ccc(CN2CCSCC2)cc1 | inconclusive: 31.6 µM [inhibitor, single point] |
| COC(=O)c1sccc1NC(=S)Nc1cc(C)ccc1OC | inactive |
| O=S(=O)(Nc1ccc2c(c1)CCC2)c1cccs1 | inactive |
| O=C(c1cc2sccc2n1Cc1ccc(F)cc1)N1CCc2ccccc21 | inconclusive: 39.8 µM [inhibitor, single point] |
| COC(=O)c1ccccc1NC(=O)CSc1nc(C)cc(C)n1 | inconclusive: 39.8 µM [inhibitor, single point] |
| COC(=O)c1ccccc1NC(=O)Oc1ccc(C(C)C)cc1 | inconclusive: 28.2 µM [inhibitor, partial curve] |
| COc1cc(/C=N/N2C(=O)CSC2=S)cc(Br)c1O | inconclusive: 28.2 µM [inhibitor, partial curve] |
| CN(C)c1ccc(-c2nnn(CC(=O)Nc3ccc4c(c3)OCCO4)n2)cc1 | inconclusive: 35.5 µM [inhibitor, single point] |
| CCCCc1ccc(NC(=O)CSCc2cc(=O)[nH][nH]2)cc1 | inconclusive: 39.8 µM [inhibitor, single point] |
| COc1ccccc1-c1nnc(SCC(=O)Nc2nc(-c3ccccc3)cs2)n1C | inactive |

| SMILES | Potency |
| --- | --- |
| COc1ccc(C(=O)Oc2ccc(C(=S)N3CCOCC3)cc2)cc1 | inconclusive: 7.08 µM [inhibitor, single point] |
| Cc1ccc(-c2cc(C(=O)n3cnc4ccccc43)c3ccccc3n2)cc1C | inconclusive: 31.6 µM [inhibitor, partial curve] |
| C/C=C(\C)CN1CCN(c2cccc(C)c2C)CC1 | inactive |
| CCN(CC)S(=O)(=O)c1ccc(Cl)c(NC(=O)COc2ccc(OC)cc2)c1 | inactive |
| On1nnc2ccc3ccccc3c21 | inconclusive: 39.8 µM [inhibitor, single point] |
| CC1(COc2ccc(CC3SC(=O)NC3=O)cc2)CCCCC1 (configuration not stated) | inactive |
| O=C(COC(=O)c1cc(-c2ccccc2)nc2ccccc12)Nc1ccc2c(c1)OCO2 | inactive |
| CCOc1ccccc1N1CCN(C(=O)COc2ccc3c(C)cc(=O)oc3c2)CC1 | inconclusive: 22.4 µM [inhibitor, partial curve] |
| COc1cc2ccc(=O)oc2c(CC=C(C)C)c1OC | inconclusive: 31.6 µM [inhibitor, partial curve] |
| Cc1cccc(N2CCN(C(=S)Nc3ccc4nc(N5CCN(C)CC5)cc(C)c4c3)CC2)c1C | inconclusive: 2.82 µM [inhibitor, full curve] |
| C/C(=N\S(=O)(=O)c1ccc(C)cc1)Nc1cc(C(C)C)c(O)cc1C | inactive |
| CCCn1c(C)cc(C)c(C#N)c1=O | inconclusive: 28.2 µM [inhibitor, single point] |
| CCS(=O)(=O)Nc1c(C(=O)O)[nH]c2ccccc12 | inconclusive: 35.5 µM [inhibitor, partial curve] |
| COc1ccc(-n2ncc3c(=O)n(CC(=O)N4c5ccccc5CC4C)cnc32)cc1 (configuration not stated) | inconclusive: 35.5 µM [inhibitor, single point] |
| N#C/C(=C\c1c(N2CCC(C(N)=O)CC2)nc2ccccn2c1=O)S(=O)(=O)c1ccc(Cl)cc1 | inactive |
| CC1(C)CC(=O)C2=C(C1)N(CCN1CCOCC1)C1=C(C(=O)CC(C)(C)C1)C2c1cccc(F)c1 | inconclusive: 31.6 µM [inhibitor, partial curve] |
| CCOC(=O)c1ccc(-c2ccc(C3Nc4ccccc4C(=O)N3O)o2)cc1 (configuration not stated) | inconclusive: 31.6 µM [inhibitor, single point] |
| C/C(=N\Nc1nc(-c2cc(C)ccc2C)cs1)c1cc2c(ccc3ccccc32)oc1=O | inconclusive: 35.5 µM [inhibitor, single point] |
| COC(Cc1nnc(SC)n1-c1ccc(Cl)cc1)OC | inactive |
| O=C(COC(=O)CC(c1ccccc1)c1ccccc1)Nc1ccc(F)c(F)c1 | inconclusive: 8.91 µM [inhibitor, single point] |
| Cc1ccc(C(=O)CC2(O)C(=O)N(Cc3ccc4c(c3)OCO4)c3ccccc32)cc1 (configuration not stated) | inactive |
| CCCS(=O)(=O)NCCc1csc(-c2ccc(OC)c(OC)c2)n1 | inconclusive: 31.6 µM [inhibitor, partial curve] |
| COc1ccc(-c2cc(C(=O)N/N=C/c3sccc3C)c3ccccc3n2)c(OC)c1 | inconclusive: 12.6 µM [inhibitor, single point] |
| C/C(=N\NC(=O)CSCc1ccccc1Cl)c1cc(O)ccc1O | active: 4.47 µM |

| SMILES | Potency |
| --- | --- |
| CCOc1ccc(NC(=O)c2sc(NC(C)=O)c(C(=O)OC)c2C)cc1 | inconclusive: 39.8 µM [inhibitor, single point] |
| CCN(CC)c1ccc2c(Cl)cc(=O)oc2c1 | inconclusive: 22.4 µM [inhibitor, partial curve] |
| Cc1cc2oc(=O)cc(C)c2cc1NC(=O)CCl | inconclusive: 31.6 µM [inhibitor, partial curve] |
| Cc1cc2cc(CNC(=O)C3CC3)ccc2n1C | inconclusive: 25.1 µM [inhibitor, single point] |
| COc1ccc(CCn2c(NN)nc3c2c(=O)[nH]c(=O)n3C)cc1 | inconclusive: 31.6 µM [inhibitor, partial curve] |
| CC(C)C(=O)c1cc2c(cc1NC(=O)c1cccs1)OCCO2 | inconclusive: 35.5 µM [inhibitor, single point] |
| O=C(O)c1cnccn1 | inconclusive: 31.6 µM [inhibitor, single point] |
| O=c1c2cc(NC(=S)NCc3ccccn3)ccc2nc2n1CCCCC2 | inconclusive: 25.1 µM [inhibitor, single point] |
| COc1ccc(-c2ccc(N(C)C)cc2)cc1[C@H]1[C@@H]2C=CCC[C@@]2(C)C(=O)N1Cc1ccccc1 | inconclusive: 31.6 µM [inhibitor, partial curve] |
| O=[N+]([O-])c1ccccc1/C=C/C=N/Nc1nc(N2CCCCC2)nc(N2CCCCC2)n1 | inconclusive: 7.08 µM [inhibitor, full curve] |
| Cc1ccccc1CC1(CO)CCCN(Cc2nc(-c3cccs3)oc2C)C1 (configuration not stated) | inconclusive: 8.91 µM [inhibitor, partial curve] |
| COc1cccc(N=c2oc3ccc(OC)cc3cc2-c2nc3ccccc3[nH]2)c1 | inconclusive: 35.5 µM [inhibitor, partial curve] |
| COc1ccc(/C=C2\C(=O)NC(=S)N2C(=O)c2ccc(C)cc2)cc1 | inconclusive: 39.8 µM [inhibitor, single point] |
| COc1ccc(Nc2nc(-c3cccs3)nc3ccccc23)cc1 | inconclusive: 35.5 µM [inhibitor, single point] |
| COc1ccccc1OCC#CCn1ccnc1 | inconclusive: 39.8 µM [inhibitor, single point] |
| CCCCNS(=O)(=O)c1ccc(S(=O)(=O)NCc2ccncc2)cc1 | inactive |
| CS(=O)(=O)Nc1cccc(C2=NN(S(C)(=O)=O)C(c3ccccc3)C2)c1 (configuration not stated) | inconclusive: 35.5 µM [inhibitor, single point] |
| Nc1ccc(C(=O)O)cc1[N+](=O)[O-] | inactive |
| CCCOC(=O)c1ccc(NC(=O)c2ccccc2[N+](=O)[O-])cc1 | inactive |
| COCCNC(=O)/C(C#N)=C/c1ccc(-c2ccc(S(=O)(=O)N3CCOCC3)cc2)o1 | inconclusive: 25.1 µM [inhibitor, single point] |
| CCOC(=O)N1CCC(NC(=O)c2cnn3ccccc23)CC1 | inconclusive: 25.1 µM [inhibitor, partial curve] |
| CCc1ccc(N/C(SCc2ccccc2C)=C(/C#N)C(=O)NCc2ccco2)cc1 | inactive |
| O=[N+]([O-])c1ccccc1/C=C/C=N/n1c(-c2ccccc2)n[nH]c1=S | inactive |
| CCc1ccc(C2C(C#N)=C(N)SC(N)=C2C#N)s1 | inconclusive: 31.6 µM [inhibitor, single point] |
